The other results are listed elsewhere or left out. Many values rest on one well or one pass, so single values are uncertain.
Assays:
Assay in all cases: cell count relative to DMSO control; melanoma cells; higher = more viable cells
Details in all cases: library dose: standard library concentration; 72 h
G361 = test system: G361
IPC-298 = test system: IPC-298
IST-MEL1 = test system: IST-MEL1
LB2518-MEL = test system: LB2518-MEL
LOXIMVI = test system: LOXIMVI
MEL-HO = test system: MEL-HO
MZ2-MEL = test system: MZ2-MEL
MeWo = test system: MeWo
RPMI7951 = test system: RPMI7951
RVH-421 = test system: RVH-421
SkMel28 = test system: SkMel28
SkMel2 = test system: SkMel2
SkMel30 = test system: SkMel30
SkMel5 = test system: SkMel5
UACC257 = test system: UACC257
UACC62 = test system: UACC62
WM115 = test system: WM115
WM1716 = test system: WM1716
WM3526 = test system: WM3526
WM1745 = test system: WM1745
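Further: cells treated in 1,536-well plates, then fixed and DAPI-stained, with nuclei counted from automated high-throughput microscope images.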

| Structure (SMILES) | cell count (G361) [%] | cell count (IPC-298) [%] | cell count (IST-MEL1) [%] | cell count (LB2518-MEL) [%] | cell count (LOXIMVI) [%] | cell count (MEL-HO) [%] | cell count (MZ2-MEL) [%] | cell count (MeWo) [%] | cell count (RPMI7951) [%] | cell count (RVH-421) [%] | cell count (SkMel28) [%] | cell count (SkMel2) [%] | cell count (SkMel30) [%] | cell count (SkMel5) [%] | cell count (UACC257) [%] | cell count (UACC62) [%] | cell count (WM115) [%] | cell count (WM1716) [%] | cell count (WM3526) [%] | cell count (WM1745) [%] |
| --- | --- | --- | --- | --- | --- | --- | --- | --- | --- | --- | --- | --- | --- | --- | --- | --- | --- | --- | --- | --- |
| CN(c1ncccc1CNc1nc(Nc2ccc3c(c2)CC(=O)N3)ncc1C(F)(F)F)S(C)(=O)=O + Cc1cc(SCc2sc(-c3ccc(C(F)(F)F)c(F)c3)nc2C)ccc1OCC(=O)O [GW0742] (first compound 0.4 µM, partner dose 10 µM) | 87.8 | 89.3 | 92.2 | 86.2 | 85 | 96.5 | 82 | 86.2 | 64.9 | 77.8 | 54.2 | 77.3 | 87.2 | 74.3 | 71.3 | 84.8 | 82.1 | 85 | 93.5 | – |
| Cc1ccc(NC(=O)c2cccc(N(C)C)c2)cc1NC(=O)c1ccc(O)cc1 + Cc1cc(SCc2sc(-c3ccc(C(F)(F)F)c(F)c3)nc2C)ccc1OCC(=O)O [GW0742] (first compound 10 µM, partner dose 10 µM) | 84.4 | 80.8 | 84 | 84.3 | 77.9 | 77.2 | 72.7 | 78.6 | 76.5 | 117 | 88.4 | 90.9 | 93.4 | 76.3 | 83.4 | 101 | 91.2 | 102 | 71.1 | 70.7 |
| COc1ccc(C2=N[C@@H](c3ccc(Cl)cc3)[C@@H](c3ccc(Cl)cc3)N2C(=O)N2CCNC(=O)C2)c(OC(C)C)c1 [Nutlin-3] + O=C(Oc1ccc([N+](=O)[O-])cc1)N1CCC(C(O)(c2ccc3c(c2)OCO3)c2ccc3c(c2)OCO3)CC1 [JZL184] (first compound 0.5 µM, partner dose 5 µM) | 75.8 | 96.4 | 99.7 | 109 | 84.1 | 97.3 | 102 | 86.4 | 110 | 70.5 | 84.3 | 78.5 | 88.7 | 73.7 | 79.2 | 44.6 | 79.7 | 83.6 | 82 | – |
| C=C(c1ccc(C(=O)O)cc1)c1cc2c(cc1C)C(C)(C)CCC2(C)C [Bexarotene] + C/C(O)=C(\C#N)C(=O)Nc1cc(Br)ccc1Br [LFM-A13] (first compound 10 µM, partner dose 10 µM) | 96.9 | 90.5 | 84.8 | 107 | 108 | 77.8 | 93.2 | 97.7 | 57.4 | 86.9 | 76.2 | 106 | 101 | 101 | 85.5 | 69.4 | 115 | 84.8 | 83.9 | – |
| CCCS(=O)(=O)Nc1ccc(F)c(C(=O)c2c[nH]c3ncc(Cl)cc23)c1F + O=C(Oc1ccc([N+](=O)[O-])cc1)N1CCC(C(O)(c2ccc3c(c2)OCO3)c2ccc3c(c2)OCO3)CC1 [JZL184] (first compound 0.4 µM, partner dose 5 µM) | 56.1 | 65.6 | 91.4 | 124 | 109 | 69.7 | 65 | 82.1 | 84.3 | 31 | 39.8 | 76.8 | 95.4 | 68.4 | 91.4 | 43.9 | 67.3 | 67.8 | 40.1 | – |
| Cc1cn(-c2cc(NC(=O)c3ccc(C)c(Nc4nccc(-c5cccnc5)n4)c3)cc(C(F)(F)F)c2)cn1 [nilotinib] + C/C(O)=C(\C#N)C(=O)Nc1cc(Br)ccc1Br [LFM-A13] (first compound 1 µM, partner dose 10 µM) | 81.5 | 93.8 | 87 | 99.8 | 98.2 | 81.6 | 84.2 | 88.1 | 84.5 | 102 | 60.5 | 91.2 | 111 | 126 | 106 | 69.4 | 105 | 98.4 | 76 | – |
| CC[C@]1(O)C[C@H]2CN(CCc3c([nH]c4ccccc34)[C@@](C(=O)OC)(c3cc4c(cc3OC)N(C=O)[C@H]3[C@@](O)(C(=O)OC)[C@H](OC(C)=O)[C@]5(CC)C=CCN6CC[C@]43[C@@H]65)C2)C1 [vincristine] + Cc1cc(SCc2sc(-c3ccc(C(F)(F)F)c(F)c3)nc2C)ccc1OCC(=O)O [GW0742] (first compound 0.0005 µM, partner dose 10 µM) | 78.3 | 88 | 86 | 75.6 | 61.2 | 88.9 | 89 | 39.2 | 40 | 85.5 | 63.3 | 84.8 | 60.5 | 33.9 | 71.3 | 68.8 | 28 | 45.9 | 57.7 | – |
| C[C@]1(O)C[C@@H](c2nc(-c3ccc4ccc(-c5ccccc5)nc4c3)c3c(N)nccn32)C1 + O=C(Oc1ccc([N+](=O)[O-])cc1)N1CCC(C(O)(c2ccc3c(c2)OCO3)c2ccc3c(c2)OCO3)CC1 [JZL184] (first compound 2 µM, partner dose 5 µM) | 84.5 | 97.5 | 94.5 | 108 | 106 | 100 | 111 | 77.9 | 101 | 109 | 97 | 96 | 107 | 81.2 | 93.4 | 86.3 | 97.9 | 73.6 | 72.1 | – |
| CCCCCCCCc1ccc(CCC(N)(CO)CO)cc1 [fingolimod] + C/C(O)=C(\C#N)C(=O)Nc1cc(Br)ccc1Br [LFM-A13] (first compound 10 µM, partner dose 10 µM) | 1.29 | 77.7 | 7.58 | 0.209 | 23.5 | 5.44 | 7.95 | 32.7 | 2.74 | 12.5 | 0.633 | 0.66 | 11.3 | 73.4 | 62.8 | 6.39 | 18.4 | 7.98 | 32.3 | – |
| COc1cc([C@@H]2c3cc4c(cc3[C@@H](O[C@@H]3O[C@@H]5CO[C@@H](C)O[C@H]5[C@H](O)[C@H]3O)[C@H]3COC(=O)[C@H]23)OCO4)cc(OC)c1O [etoposide] + O=C(Oc1ccc([N+](=O)[O-])cc1)N1CCC(C(O)(c2ccc3c(c2)OCO3)c2ccc3c(c2)OCO3)CC1 [JZL184] (first compound 0.1 µM, partner dose 5 µM) | 85.8 | 85.4 | 103 | 84.4 | 126 | 83.6 | 87.5 | 75 | 77.3 | 96.4 | 75.5 | 76.7 | 93.3 | 63.6 | 85 | 53.8 | 78 | 66.6 | 78.6 | – |
| Nc1cccc2c1CN(C1CCC(=O)NC1=O)C2=O (stereo unspecified) [lenalidomide] + O=C(Oc1ccc([N+](=O)[O-])cc1)N1CCC(C(O)(c2ccc3c(c2)OCO3)c2ccc3c(c2)OCO3)CC1 [JZL184] (first compound 5 µM, partner dose 5 µM) | 109 | 102 | 111 | 132 | 105 | 92.6 | 108 | 87.9 | 74.8 | 107 | 110 | 95.6 | 91 | 75.2 | 97.9 | 56.3 | 95.2 | 79.5 | 66.2 | 83.8 |
| Cn1sc(=O)n(Cc2ccccc2)c1=O + Cc1cc(SCc2sc(-c3ccc(C(F)(F)F)c(F)c3)nc2C)ccc1OCC(=O)O [GW0742] (first compound 2 µM, partner dose 10 µM) | 87.6 | 99.8 | 90.9 | 90.7 | 80.3 | 97.2 | 83.1 | 89.1 | 85.4 | 85.5 | 81.7 | 91.3 | 111 | 106 | 93.2 | 87.3 | 98.8 | 101 | 94.8 | – |
| CNC(=O)c1cc(Oc2ccc(NC(=O)Nc3ccc(Cl)c(C(F)(F)F)c3)cc2)ccn1 [sorafenib] + C/C(O)=C(\C#N)C(=O)Nc1cc(Br)ccc1Br [LFM-A13] (first compound 2 µM, partner dose 10 µM) | 85.2 | 89.1 | 89.5 | 87 | 113 | 88.8 | 92.6 | 76.3 | 74.8 | 132 | 65.7 | 84.8 | 87.1 | 83.1 | 88.2 | 82.2 | 87.1 | 81.9 | 74.2 | – |
| O=C(O)[C@@H]1[O][Sb](=[O])([O][Sb]2(=[O])[O][C@H]([C@H](O)CO)[C@H](O)[C@H](C(=O)O)[O]2)[O][C@H]([C@H](O)CO)[C@@H]1O (stereo partly specified) [stibogluconate] + C/C(O)=C(\C#N)C(=O)Nc1cc(Br)ccc1Br [LFM-A13] (first compound 10 µM, partner dose 10 µM) | 143 | 132 | 102 | 148 | 96.4 | 85.9 | 96.9 | 100 | 94 | 128 | 90.3 | 117 | 112 | 112 | 105 | 89.2 | 82.6 | 125 | 98.4 | – |
| NC(=O)c1ccc(N(C(N)=O)c2c(F)cccc2F)nc1-c1ccc(F)cc1F + C/C(O)=C(\C#N)C(=O)Nc1cc(Br)ccc1Br [LFM-A13] (first compound 2 µM, partner dose 10 µM) | 96.9 | 119 | 99.1 | 90.4 | 81.8 | 87.9 | 90.4 | 90.8 | 86.2 | 85.2 | 82.8 | 102 | 87.9 | 108 | 102 | 74.2 | 89 | 117 | 99.8 | – |
| Nc1ncn([C@H]2C[C@H](O)[C@@H](CO)O2)c(=O)n1 [decitabine] + O=C(Oc1ccc([N+](=O)[O-])cc1)N1CCC(C(O)(c2ccc3c(c2)OCO3)c2ccc3c(c2)OCO3)CC1 [JZL184] (first compound 0.5 µM, partner dose 5 µM) | 79.3 | 55.2 | 80 | 111 | 94.3 | 65.3 | 74.8 | 69.4 | 83.4 | 80.8 | 90.3 | 105 | 96.4 | 65.8 | 101 | 57.7 | 70.8 | 65 | 77 | – |
